Measurements taken from PMC4336329 (PLoS ONE, 2015).
The whole screen tested about 310,000 compounds, of which about 2,200 (0.71%) showed an effect of 50% or more. The effect is printed as a negative number. The list shows a part of the results.

molecular target: human ether-à-go-go-related gene (hERG) potassium channel (human, UniProt Q12809); experiment: primary screen, population patch clamp on CHO cells stably expressing hERG
Sequence (Q12809 whole entry, looked up): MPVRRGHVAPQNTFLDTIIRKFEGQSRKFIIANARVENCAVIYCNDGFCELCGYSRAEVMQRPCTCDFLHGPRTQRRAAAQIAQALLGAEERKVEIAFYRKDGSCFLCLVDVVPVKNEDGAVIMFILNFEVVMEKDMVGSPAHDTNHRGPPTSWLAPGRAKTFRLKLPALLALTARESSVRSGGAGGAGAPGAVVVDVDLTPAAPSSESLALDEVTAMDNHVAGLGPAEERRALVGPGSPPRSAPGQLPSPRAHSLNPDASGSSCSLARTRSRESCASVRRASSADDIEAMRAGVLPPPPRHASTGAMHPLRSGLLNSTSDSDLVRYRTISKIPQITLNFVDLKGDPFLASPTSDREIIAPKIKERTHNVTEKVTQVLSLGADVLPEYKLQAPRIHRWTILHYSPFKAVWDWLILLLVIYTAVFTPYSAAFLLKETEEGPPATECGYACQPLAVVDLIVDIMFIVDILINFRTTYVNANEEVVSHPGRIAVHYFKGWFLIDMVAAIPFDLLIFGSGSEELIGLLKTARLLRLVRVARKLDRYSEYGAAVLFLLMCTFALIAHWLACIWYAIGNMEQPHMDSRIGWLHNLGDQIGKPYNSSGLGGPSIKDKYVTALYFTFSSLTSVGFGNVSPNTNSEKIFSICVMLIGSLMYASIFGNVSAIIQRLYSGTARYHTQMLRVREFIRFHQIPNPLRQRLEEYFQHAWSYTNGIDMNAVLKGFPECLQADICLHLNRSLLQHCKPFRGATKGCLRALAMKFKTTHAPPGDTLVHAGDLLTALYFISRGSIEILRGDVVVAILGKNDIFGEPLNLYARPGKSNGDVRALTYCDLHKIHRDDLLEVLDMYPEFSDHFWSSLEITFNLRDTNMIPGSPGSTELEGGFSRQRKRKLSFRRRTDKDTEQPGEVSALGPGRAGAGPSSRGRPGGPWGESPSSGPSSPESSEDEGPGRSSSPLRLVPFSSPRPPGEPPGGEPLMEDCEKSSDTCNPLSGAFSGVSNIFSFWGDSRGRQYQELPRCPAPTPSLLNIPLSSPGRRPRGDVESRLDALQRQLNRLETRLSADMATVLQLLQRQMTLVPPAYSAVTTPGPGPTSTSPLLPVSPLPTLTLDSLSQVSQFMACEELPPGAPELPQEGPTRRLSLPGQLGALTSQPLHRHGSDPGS

SMILES | hERG current change (%, negative = inhibition) at 1uM
Cc1cccc(N(CC(=O)NC2CCCCC2)C(=O)CCC(=O)Nc2ccccn2)c1 | 9.76%
OCCN1CCOCCOCCN(CCO)CCN(CCO)CC1 | 16.7%
Cc1ccnc(N2CCC(C(=O)NNC(=O)c3ccncc3)CC2)n1 | -5.26%
COc1ccc(S(=O)(=O)NC(C)C)cc1C(=O)NC1CCCCC1 | 11.4%
O=[N+]([O-])c1cc(Br)c(O)c(C=Nc2ccc(N3CCOCC3)cc2)c1 | 17.4%
COc1cccc(N(CC(=O)NC2CCCC2)C(=O)CCC(=O)Nc2nccs2)c1 | 13.7%
O=C(Nc1cccc2cccnc12)c1ccc(Br)o1 | -6.03%
[O-][n+]1onc2c1CCc1[nH]c(-c3ccccc3)nc1-2 | 23%
CC(=O)OC[C@H]1O[C@@H](n2ccc(=O)[nH]c2=S)C(OC(C)=O)C1OC(C)=O (stereo partly shown) | 3.02%
O=C(NCC(c1ccc(F)cc1)N1CCOCC1)c1ccccc1F (stereo not shown) | 6.81%
O=C(NNC(=O)c1cc2ccccc2oc1=O)c1ccccc1 | 8.75%
COC(=O)c1ccccc1NC(=O)CN1CCN(C23CC4CC(CC(C4)C2)C3)CC1 | -75%
COc1cc(C#Cc2c(-c3ccccc3)n(C)c3ccccc23)cc(OC)c1 | 15.6%
CCCCCCc1cc2cc(S(=O)(=O)c3ccc(F)cc3)c(=O)oc2cc1O | 3.33%
CC(=O)N1c2ccccc2[C@@H](C)[C@@H]1C | 8.98%
COCCn1c(COC)nc2ccccc21 | -0.581%
COc1cc([N+](=O)[O-])cc(/C=N/NC(=O)C(C)Nc2cccc3ccccc23)c1O (stereo not shown) | 22.3%
CN(c1ccc(C(=O)N2CCN(c3ccccc3F)CC2)cc1)S(=O)(=O)c1ccccc1 | 2.32%
CCOc1ccc(N(Cc2cc3ccc(C)cc3[nH]c2=O)S(=O)(=O)c2ccccc2)cc1 | 25.6%
CCOC(=O)N1CCN(C(=O)c2ccc3c(=O)n(CC4CCCO4)c(=S)[nH]c3c2)CC1 (stereo not shown) | 6.64%
COc1ccc(C(=O)N2CCN(c3cccc(Cl)c3)CC2)c(OC)c1 | -1.23%
COc1ccc(NC(=O)c2ccc3c(c2)NC(=O)CS3)cc1S(=O)(=O)Nc1ccc(Br)cc1 | 7.64%

SMILES | hERG current change (%, negative = inhibition) at 1uM
CCN(CC)C(=O)C1CCCN(c2ccc([N+](=O)[O-])cc2/C=N/NC(=O)c2cccc([N+](=O)[O-])c2)C1 (stereo not shown) | -8.21%
Cc1ccc(C(=O)N/C(=C\c2cccs2)C(=O)N2CCOCC2)cc1C | 1.26%
NC(=O)CC(NC(=O)c1ccccc1)C(=O)O (stereo not shown) | 7.6%
CCN(CC)C(=O)CSc1nc(C)cc(-c2cccs2)c1C#N | 3.13%
CCN(CCC(=O)Nc1cc(OC)cc(OC)c1)Cc1ccccc1 | -12.1%
CCOc1ccc(S(=O)(=O)Nc2ccc(S(=O)(=O)N3CCOCC3)cc2)cc1 | 4.9%
COC(=O)c1ccc(NC2CC(=O)N(c3ccccc3C)C2=O)cc1 (stereo not shown) | 0.934%
Cc1ccccc1Cn1ccc(-c2ccc3c(c2)OCO3)n1 | -11.2%
COCCN1C(=S)NC(c2cccc(C(F)(F)F)c2)C(C(=O)N2CCOCC2)=C1C (stereo not shown) | 11.6%
Cc1cccc(NC(=O)c2cc([N+](=O)[O-])ccc2NCC2CCCO2)n1 (stereo not shown) | -46.9%
CCOC(=O)Nc1c(O)ccc2oc(C)c(-c3ccccc3)c12 | 4.1%
CC(C)C(NS(=O)(=O)c1cccc(C(F)(F)F)c1)C(=O)O (stereo not shown) | 11.6%
O=C(COC(=O)c1cccs1)NCCN1C(=O)CSC1=O | 15.2%
O=C(Cc1ccccc1)NCC(=O)N1CCN(c2ccccc2F)CC1 | -2.88%
Cc1c(NC(=O)c2ccccc2N)cccc1C(=O)O | 18.6%
C(=C\c1nccc2c1[nH]c1ccccc12)/c1ccccc1 | 3.22%
O=C(CSc1nncn1-c1ccccc1)Nc1ccc(F)cc1F | 16%
CCOC(=O)c1c(NC(=O)CSc2nncn2C)sc(C)c1C | -5.95%
CCOc1ccc(NC(=O)COC(=O)Cn2cnnn2)cc1OCC | 7.48%
COc1ccccc1C(CC(N)=O)c1ccco1 (stereo not shown) | 12.4%
CC(C)CN1C(=O)c2ccc(NC(=O)c3ccccc3F)cc2C1=O | -3.87%
Cc1c(Cl)cccc1N(CC(=O)O)S(C)(=O)=O | 18.6%

SMILES | hERG current change (%, negative = inhibition) at 1uM
COc1ccccc1OCC(=O)NN=C(Cc1ccccc1)Cc1ccccc1 | 16.7%
O=C(COC(=O)/C=C/c1ccc(Cl)cc1Cl)Nc1cc(C(F)(F)F)ccc1N1CCOCC1 | 14.7%
CCc1nc2oc3cc(OC)ccc3c(=O)c2c(=O)n1Cc1ccccc1 | 4.36%
COc1cccc(-c2ccc(SCC(=O)NC3CCCCC3)nn2)c1 | 4.89%
COc1ccc(CC(=O)NNS(=O)(=O)c2ccccc2[N+](=O)[O-])cc1OC | 15%
Cc1ccc(NC(=S)NCCc2ccc(F)cc2)c(C)c1 | 12%
COc1ccc(/C=N/n2c(=O)[nH]c3c([nH]c4ccc(F)cc43)c2=O)cc1CN1CCCCC1 | -1.89%
CCC(C(=O)Nc1ccccc1-c1ccccc1)c1ccccc1 (stereo not shown) | 10.7%
O=C1CN(C(=O)NCC(=O)N[C@H](Cc2ccccc2)C(=O)O)c2ccccc2N1 | 12.7%
CC(C)Oc1cccc(C(=O)NC(=S)Nc2ccc(Cl)c(C(=O)O)c2)c1 | 5.37%
COc1cc(C(=O)Nc2ccccc2-c2nnn(CC(N)=O)n2)cc(OC)c1OC | 12.7%
Cc1ccccc1NC(=O)COC(=O)CN1C(=O)NC(C)(C)C1=O | 5.29%
CN1C(C(=O)c2ccccc2)=C(N)c2ccccc2S1(=O)=O | 18.6%
CCN(C(=O)c1cc2cccc(OC)c2oc1=O)c1ccccc1 | 14.2%
O=C(CSc1nnc(-c2cccnc2)n1Cc1ccco1)c1ccc(Br)cc1 | -19.5%
CC(SCc1ccccc1)C(=O)Nc1ccc(F)cc1 (stereo not shown) | 9.78%
CN(C(=O)CN1C(=O)c2cccc(N)c2C1=O)C1CCCCC1 | 9.4%
O=C(Nc1ccccc1-c1nnc(SCc2ccccc2)o1)c1ccccc1 | 6.44%
Nc1nc(Cl)nc(N(c2ccccc2)c2ccccc2)n1 | 10.8%
CCOC(=O)c1cnc2c(-c3ccc(Cl)cc3)cnn2c1C | 14.6%
Cc1ccc(C(=O)Nc2c(C(=O)N3CCOCC3)cnn2-c2ccccc2)cc1 | 0.423%
NC(=O)c1ccc(/C=N/O)nc1 | -16.1%

SMILES | hERG current change (%, negative = inhibition) at 1uM
O=C(CCl)NCCN1C(=O)S/C(=C\c2cccnc2)C1=O | 9.41%
Cc1ccc(C2N=C(N)Nc3nc(=O)c4ccccc4n32)cc1 (stereo not shown) | 11.1%
O=C(N/N=C/c1ccc(Cl)c([N+](=O)[O-])c1)c1ccc2nc[nH]c2c1 | 9.14%
CCOC(=O)C1=C(O)c2ccccc2C(=O)/C1=C\c1ccc(CC)cc1 | 0.269%
CSc1ccc(-c2nc3cnccn3c2Nc2ccc3c(c2)OCO3)cc1 | 9.9%
COC(=O)c1cc(C(=O)Nn2cnnc2)cc([N+](=O)[O-])c1 | 17.6%
CCCCn1c(N)c(N(CCOC)C(=O)c2ccc(N3CCCC3)c([N+](=O)[O-])c2)c(=O)[nH]c1=O | 12.7%
O=C(Cn1cc(F)c(=O)[nH]c1=O)NCCO | 1.39%
CC(=O)Nc1ccc(NC(=O)C(C)NC(C)c2cccc3ccccc23)cc1 (stereo not shown) | 15.5%
COc1ccc(CCNC(=S)NC(=O)c2c(-c3ccccc3Cl)noc2C)cc1OC | 8.88%
CCOc1ccccc1NC(=O)NCCN1CCCCC1 | 14.1%
Cc1c(Cl)c([N+](=O)[O-])nn1CCCC(=O)Nc1c(C)n(C)n(-c2ccccc2)c1=O | 18.9%
Cc1ccccc1NC(=S)NCCc1ccccn1 | -0.291%
Cc1c(OCC(=O)NCC2CCC(C(=O)NCCCO)CC2)ccc2c(-c3ccccc3)cc(=O)oc12 (stereo not shown) | -4.36%
CC1Sc2ccc(C(=O)NCc3cccc(C(F)(F)F)c3)cc2NC1=O (stereo not shown) | 1.77%
O=C(COc1ccccc1)Nc1nnc(S(=O)(=O)N2CCCCC2)s1 | 17.1%
Cc1nc(Cl)c2c(n1)N(CC(N)=O)C(=O)CO2 | 12.2%
COc1ccccc1NC(=O)/C(=C\c1cccnc1)NC(=O)c1ccc(C)cc1 | -25.1%
O=C(COC(=O)C1COc2ccccc2O1)Nc1cccc(Cl)c1 (stereo not shown) | 9.86%
CCc1ccc2c(CN(C)Cc3ccc(OC(F)F)c(OC)c3)cc(=O)oc2c1 | -18.8%
COc1cccc(/C=N/N2CCN(Cc3ccccc3)CC2)c1O | 8.01%
COc1ccc(-n2c(=O)[nH]c3ccccc3c2=O)c(OC)c1 | 8.59%
